Measurements: the supplement of paper PMC6657886

What was measured:
Assay in all cases: Agar dilution on enriched GC agar; resistance determinants by microarray.
benzylpenicillin = compound: CC1(C)S[C@@H]2[C@H](NC(=O)Cc3ccccc3)C(=O)N2[C@H]1C(=O)O [benzylpenicillin]
azithromycin = compound: CC[C@H]1OC(=O)[C@H](C)[C@@H](O[C@H]2C[C@@](C)(OC)[C@@H](O)[C@H](C)O2)[C@H](C)[C@@H](O[C@@H]2O[C@H](C)C[C@H](N(C)C)[C@H]2O)[C@](C)(O)C[C@@H](C)CN(C)[C@H](C)[C@@H](O)[C@]1(C)O [azithromycin]
tetracycline = compound: CN(C)[C@@H]1C(O)=C(C(N)=O)C(=O)[C@@]2(O)C(O)=C3C(=O)c4c(O)cccc4[C@@](C)(O)[C@H]3C[C@@H]12 [tetracycline]
spectinomycin = compound: CN[C@@H]1[C@H](O)[C@H](NC)[C@H]2O[C@@]3(O)C(=O)C[C@@H](C)O[C@H]3O[C@@H]2[C@H]1O [spectinomycin]
ceftriaxone = compound: CO/N=C(\C(=O)N[C@@H]1C(=O)N2C(C(=O)O)=C(CSc3nc(=O)c(O)nn3C)CS[C@H]12)c1csc(N)n1 [ceftriaxone]

Row | Test System | MIC (benzylpenicillin) [µg/mL] | MIC (azithromycin) [µg/mL] | MIC (tetracycline) [µg/mL] | MIC (spectinomycin) [µg/mL] | MIC (ceftriaxone) [µg/mL]
1 | Neisseria gonorrhoeae isolate 178 (blaTEM plasmid: no, gyrA: wild type, mtrR promoter: wild type, parC: wild type, penA: wild type, ponA: wild type, porB: wild type, rpsJ: wild type, tetM plasmid: no) | ≤ 0.015 | 0.12 | 0.25 | 32 | ≤ 0.002
2 | Neisseria gonorrhoeae isolate 207 (blaTEM plasmid: no, gyrA: Thr91, Gly95, mtrR promoter: wild type, parC: wild type, penA: wild type, ponA: wild type, porB: wild type, rpsJ: wild type, tetM plasmid: no) | 0.12 | 0.03 | 0.5 | 16 | ≤ 0.002
3 | Neisseria gonorrhoeae isolate 139 (blaTEM plasmid: no, gyrA: Phe91, Asn95, mtrR promoter: wild type, parC: wild type, penA: ins345Asp, ponA: Pro421, porB: wild type, rpsJ: Met57, tetM plasmid: no) | 0.25 | 0.004 | 0.25 | 32 | 0.015
4 | Neisseria gonorrhoeae isolate 145 (blaTEM plasmid: yes, gyrA: Phe91, Asp95, mtrR promoter: wild type, parC: wild type, penA: ins345Asp, ponA: wild type, porB: wild type, rpsJ: Met57, tetM plasmid: yes) | ≥ 32 | 0.06 | 16 | 16 | ≤ 0.002
5 | Neisseria gonorrhoeae isolate 389 (blaTEM plasmid: no, gyrA: wild type, mtrR promoter: wild type, parC: wild type, penA: ins345Asp, ponA: Pro421, porB: wild type, rpsJ: wild type, tetM plasmid: no) | 0.06 | 0.12 | 0.25 | 8 | ≤ 0.002
6 | Neisseria gonorrhoeae isolate 323 (blaTEM plasmid: no, gyrA: Phe91, Gly95, mtrR promoter: wild type, parC: Arg87, Glu91, penA: ins345Asp, ponA: Pro421, porB: Asp120, Ala121, rpsJ: Met57, tetM plasmid: no) | 0.5 | 0.008 | 0.5 | 32 | 0.008
7 | Neisseria gonorrhoeae isolate 473 (blaTEM plasmid: yes, gyrA: Phe91, Asn 95, mtrR promoter: -35delA, parC: Arg87, Glu91, penA: ins345Asp, ponA: Pro421, porB: Asn120, Asp121, rpsJ: Met57, tetM plasmid: no) | ≥ 32 | 0.12 | 1 | 8 | 0.03
8 | Neisseria gonorrhoeae isolate 37 (blaTEM plasmid: no, gyrA: wild type, mtrR promoter: wild type, parC: wild type, penA: wild type, ponA: wild type, porB: wild type, rpsJ: wild type, tetM plasmid: no) | ≤ 0.015 | 0.12 | 0.5 | 16 | ≤ 0.002
9 | Neisseria gonorrhoeae isolate 236 (blaTEM plasmid: no, gyrA: wild type, mtrR promoter: wild type, parC: wild type, penA: wild type, ponA: wild type, porB: wild type, rpsJ: wild type, tetM plasmid: no) | ≤ 0.015 | 0.002 | 0.03 | 8 | ≤ 0.002
10 | Neisseria gonorrhoeae isolate 282 (blaTEM plasmid: no, gyrA: wild type, mtrR promoter: wild type, parC: wild type, penA: ins345Asp, ponA: Pro421, porB: wild type, rpsJ: Met57, tetM plasmid: no) | 0.03 | 0.06 | 0.5 | 16 | ≤ 0.002
11 | Neisseria gonorrhoeae isolate 122 (blaTEM plasmid: no, gyrA: wild type, mtrR promoter: wild type, parC: wild type, penA: ins345Asp, ponA: wild type, porB: wild type, rpsJ: wild type, tetM plasmid: no) | 0.12 | 0.015 | 0.25 | 32 | 0.008
12 | Neisseria gonorrhoeae isolate 128 (blaTEM plasmid: no, gyrA: wild type, mtrR promoter: wild type, parC: wild type, penA: wild type, ponA: wild type, porB: wild type, rpsJ: wild type, tetM plasmid: no) | 0.03 | 0.03 | 1 | 16 | ≤ 0.002
13 | Neisseria gonorrhoeae isolate 409 (blaTEM plasmid: no, gyrA: Thr91, Gly95, mtrR promoter: wild type, parC: wild type, penA: wild type, ponA: wild type, porB: Lys120, Asn121, rpsJ: Met57, tetM plasmid: no) | 0.5 | 0.5 | 0.5 | 16 | ≤ 0.002
14 | Neisseria gonorrhoeae isolate 225 (blaTEM plasmid: no, gyrA: Thr91, Gly95, mtrR promoter: wild type, parC: wild type, penA: ins345Asp, ponA: wild type, porB: wild type, rpsJ: Met57, tetM plasmid: no) | 0.25 | 0.06 | 0.5 | 16 | ≤ 0.002
15 | Neisseria gonorrhoeae isolate 471 (blaTEM plasmid: no, gyrA: Phe91, Asn 95, mtrR promoter: wild type, parC: Arg 87, Glu91, penA: wild type, ponA: Pro421, porB: wild type, rpsJ: wild type, tetM plasmid: no) | 0.25 | 0.06 | 0.5 | 32 | ≤ 0.002
16 | Neisseria gonorrhoeae isolate 146 (blaTEM plasmid: no, gyrA: wild type, mtrR promoter: wild type, parC: wild type, penA: wild type, ponA: wild type, porB: wild type, rpsJ: wild type, tetM plasmid: no) | ≤ 0.015 | 0.12 | 0.25 | 32 | ≤ 0.002
17 | Neisseria gonorrhoeae isolate 19 (blaTEM plasmid: no, gyrA: wild type, mtrR promoter: -35delA, parC: wild type, penA: ins345Asp, ponA: wild type, porB: wild type, rpsJ: wild type, tetM plasmid: no) | 0.06 | 0.12 | 0.25 | 16 | ≤ 0.002
18 | Neisseria gonorrhoeae isolate 66 (blaTEM plasmid: no, gyrA: Phe91, Asn95, mtrR promoter: wild type, parC: wild type, penA: ins345Asp, ponA: Pro421, porB: wild type, rpsJ: Met57, tetM plasmid: yes) | 0.06 | 0.06 | 32 | 8 | 0.004
19 | Neisseria gonorrhoeae isolate 509 (blaTEM plasmid: no, gyrA: Thr91, Gly95, mtrR promoter: wild type, parC: wild type, penA: wild type, ponA: wild type, porB: wild type, rpsJ: wild type, tetM plasmid: no) | 0.12 | 0.12 | 0.25 | 32 | ≤ 0.002
20 | Neisseria gonorrhoeae isolate 179 (blaTEM plasmid: no, gyrA: Thr91, Gly95, mtrR promoter: wild type, parC: wild type, penA: wild type, ponA: wild type, porB: wild type, rpsJ: wild type, tetM plasmid: no) | 0.12 | 0.06 | 0.12 | 32 | ≤ 0.002
21 | Neisseria gonorrhoeae isolate 76 (blaTEM plasmid: no, gyrA: Phe91, Asn95, mtrR promoter: -35delA, parC: Arg87, Glu91, penA: ins345Asp, ponA: Pro421, porB: Thr 120, Asn 121, rpsJ: Met57, tetM plasmid: no) | 1 | 0.25 | 1 | 16 | 0.03
22 | Neisseria gonorrhoeae isolate 1 (blaTEM plasmid: no, gyrA: wild type, mtrR promoter: wild type, parC: wild type, penA: ins345Asp, ponA: wild type, porB: Asp120, Ala121, rpsJ: wild type, tetM plasmid: no) | 0.5 | 0.5 | 1 | 16 | 0.008
23 | Neisseria gonorrhoeae isolate 220 (blaTEM plasmid: no, gyrA: Phe91, Asn95, mtrR promoter: -35delA, parC: Arg87, Glu91, penA: ins345Asp, ponA: Pro421, porB: Asn120, Asp121, rpsJ: Met57, tetM plasmid: no) | 0.5 | 0.25 | 2 | 16 | 0.015
24 | Neisseria gonorrhoeae isolate 281 (blaTEM plasmid: no, gyrA: wild type, mtrR promoter: wild type, parC: wild type, penA: ins345Asp, ponA: Pro421, porB: wild type, rpsJ: wild type, tetM plasmid: no) | ≤ 0.015 | 0.03 | 0.12 | 8 | ≤ 0.002
25 | Neisseria gonorrhoeae isolate 373 (blaTEM plasmid: no, gyrA: wild type, mtrR promoter: wild type, parC: wild type, penA: wild type, ponA: wild type, porB: wild type, rpsJ: wild type, tetM plasmid: no) | 0.06 | 0.25 | 1 | 16 | ≤ 0.002

MIC of clinical N. gonorrhoeae isolates (2015-2017) by agar dilution on GC agar with 1% IsoVitaleX (ranges not stated); higher = less susceptible. No active / inactive call per row; the paper counts benzylpenicillin above 1 and ceftriaxone above 0.125 mg/L as resistant (EUCAST). The method is stated for benzylpenicillin and ceftriaxone and assumed for the other drugs. '<=' is inferred from pile-ups at the end values. Isolates are numbered anew.
